Test results taken from article PMC4336329 (PLoS ONE, 2015).
Hit rate of the full screen: of about 310,000 compounds, about 14,000 (4.5%) showed an effect of 50% or more. The effect is printed as a negative number. Some of the results follow.

molecular target: human ether-à-go-go-related gene (hERG) potassium channel (human, UniProt Q12809); experiment: primary screen, population patch clamp on CHO cells stably expressing hERG
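Note: peak tail current of the secondary pulse compared with the same well before compound.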

Sequence of human ether-à-go-go-related gene (hERG) potassium channel (Q12809 whole entry, looked up): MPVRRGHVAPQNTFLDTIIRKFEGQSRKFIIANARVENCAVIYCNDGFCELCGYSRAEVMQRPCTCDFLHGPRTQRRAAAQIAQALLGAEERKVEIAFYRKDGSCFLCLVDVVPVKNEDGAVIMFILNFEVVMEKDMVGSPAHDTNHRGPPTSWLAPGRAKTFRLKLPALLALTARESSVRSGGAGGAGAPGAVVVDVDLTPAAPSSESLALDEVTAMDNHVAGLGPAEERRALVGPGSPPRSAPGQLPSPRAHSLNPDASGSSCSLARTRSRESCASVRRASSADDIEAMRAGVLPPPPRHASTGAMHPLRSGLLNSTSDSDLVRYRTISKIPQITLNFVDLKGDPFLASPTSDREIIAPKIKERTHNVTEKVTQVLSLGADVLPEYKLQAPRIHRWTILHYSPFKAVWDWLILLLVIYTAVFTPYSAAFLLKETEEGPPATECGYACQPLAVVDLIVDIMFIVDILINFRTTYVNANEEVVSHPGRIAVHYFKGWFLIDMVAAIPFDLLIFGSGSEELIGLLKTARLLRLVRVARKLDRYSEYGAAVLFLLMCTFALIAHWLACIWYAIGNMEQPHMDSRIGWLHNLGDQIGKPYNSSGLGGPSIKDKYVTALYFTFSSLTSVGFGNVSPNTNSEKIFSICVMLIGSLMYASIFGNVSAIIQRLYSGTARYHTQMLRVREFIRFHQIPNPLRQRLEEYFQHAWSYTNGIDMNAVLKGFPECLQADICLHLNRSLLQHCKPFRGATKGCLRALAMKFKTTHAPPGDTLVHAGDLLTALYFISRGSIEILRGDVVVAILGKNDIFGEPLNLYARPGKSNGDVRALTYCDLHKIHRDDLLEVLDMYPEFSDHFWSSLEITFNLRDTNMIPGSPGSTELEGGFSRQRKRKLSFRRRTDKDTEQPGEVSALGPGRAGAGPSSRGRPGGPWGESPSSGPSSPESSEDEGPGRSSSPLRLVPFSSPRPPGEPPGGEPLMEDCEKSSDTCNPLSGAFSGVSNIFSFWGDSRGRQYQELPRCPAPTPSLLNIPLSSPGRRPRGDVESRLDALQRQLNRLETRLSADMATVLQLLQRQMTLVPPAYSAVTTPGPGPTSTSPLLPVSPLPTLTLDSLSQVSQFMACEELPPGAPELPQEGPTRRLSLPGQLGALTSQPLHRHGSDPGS

Compared with CCCN1C2CCCC1CC(NC(=O)c1ccc(Br)cc1)C2 (stereo not drawn), CC1CCN(CCNC(=O)c2ccc3c(=O)n(Cc4ccc(Cl)cc4)c(=S)[nH]c3c2)CC1 is higher in “hERG current change (%, negative = inhibition) at 10uM” value: -66.3% for the first, -15.8% for the second.

Going from COC(=O)/N=C(/Cc1ccc(OC)cc1)c1ccc(OC)cc1 to CCOc1ccc(OCCC(=O)OCC(=O)NC(C)c2ccccc2)cc1 (stereo not drawn), the “hERG current change (%, negative = inhibition) at 10uM” value rises from -4.39% to 14.9%.

Going from Cc1ccc(NC(=O)CSCc2cc(=O)n3ccsc3n2)c(C)c1 to COCCCNC(=O)CCn1c(=O)c2ccccc2n(CC(=O)Nc2ccc(C)cc2C)c1=O, the “hERG current change (%, negative = inhibition) at 10uM” value rises from 15.5% to 17%.

Compared with COc1cccc(CC(=O)Nc2ccccc2N2CCCC2)c1, CC(=O)c1c(N2CCCCC2)nc(=S)n(Cc2ccccc2)c1C is lower in “hERG current change (%, negative = inhibition) at 10uM” value: -5.39% for the first, -17.3% for the second.

First: Cc1ccc(S(=O)(=O)Nc2ccc3ncccc3c2)cc1
Second: COCCNC(=O)CN(c1cccc(OC)c1)S(=O)(=O)c1ccc(C)cc1
The “hERG current change (%, negative = inhibition) at 10uM” value of the first is higher: -6.36% for the first, -12.2% for the second.

Going from Cc1cc(=O)[nH]c2ccccc12 to Cc1cc(C)n(CC(=O)NCc2ccccc2)c(=O)c1C#N, the “hERG current change (%, negative = inhibition) at 10uM” value rises from 14.1% to 21.6%.

First: Cc1ccc2nsnc2c1NC(=O)c1ccc([N+](=O)[O-])cc1
Second: O=[N+]([O-])c1ccc(N/N=C/c2ccccc2O)cc1
The “hERG current change (%, negative = inhibition) at 10uM” value of the first is lower: -39.6% for the first, 15.8% for the second.

Going from CCCCC(=O)Nc1cc([N+](=O)[O-])ccc1F to CCN(CC(=O)Nc1ccc([N+](=O)[O-])cc1OC)c1ccccc1, the “hERG current change (%, negative = inhibition) at 10uM” value falls from 22.5% to -27.5%.

Going from CCS(=O)(=O)N1CCC(C(=O)NCc2cccnc2)CC1 to O=C(NCc1ccc2c(c1)OCO2)C1CCCCC1, the “hERG current change (%, negative = inhibition) at 10uM” value rises from -11.7% to -8.61%.

First: Cc1cc(N2CCN(S(=O)(=O)c3ccc(Cl)cc3)CC2)c2ccccc2n1
Second: CS(=O)(=O)N1CCN(c2ccc(NC(=O)c3cc4ccccc4o3)cc2)CC1
The “hERG current change (%, negative = inhibition) at 10uM” value of the first is lower: -77.8% for the first, 14.8% for the second.

First: CC(=O)c1cc2c(cc1NC(=O)C1CC1)OCO2
Second: CCOC(=O)c1sc(Nc2nc3cc4c(cc3s2)OCO4)cc1C
The “hERG current change (%, negative = inhibition) at 10uM” value of the first is lower: 6.77% for the first, 13% for the second.

Going from CCOC(=O)n1c(=O)n(Cc2ccccc2Cl)c2ccccc21 to CCOC(=O)/C(=N/Nc1ccccc1)N1CCCc2ccccc21, the “hERG current change (%, negative = inhibition) at 10uM” value rises from -5.87% to 3.39%.

Compared with CCSc1n[nH]c(=O)[nH]c1=O, Nc1nc(SCC(=O)Nc2cccnc2Cl)n[nH]1 is higher in “hERG current change (%, negative = inhibition) at 10uM” value: 4.31% for the first, 7.22% for the second.

Going from CC(C)NC(=O)[C@H]1N2C(=O)c3ccccc3C2SC1(C)C (stereo partly drawn) to CC(C)Sc1ccccc1C(=O)Nc1ccc2c(c1)n(C)c(=O)n2C, the “hERG current change (%, negative = inhibition) at 10uM” value falls from 16.8% to 12.2%.

Compared with CC(C)N(C(=O)CSc1nnc(CN2CCCCCC2=O)n1-c1ccccn1)C(C)C, Cc1cc2ccccc2nc1SCC(=O)NC1CCCCC1 is higher in “hERG current change (%, negative = inhibition) at 10uM” value: 0.287% for the first, 0.648% for the second.

First: CN(C)c1ccc(NC(=O)CN2CCN(c3ccc(F)cc3)CC2)cc1
Second: CCOc1ccc(C(=O)Nc2ccc(N3CCN(S(C)(=O)=O)CC3)cc2)cc1[N+](=O)[O-]
The “hERG current change (%, negative = inhibition) at 10uM” value of the first is lower: -4.56% for the first, 7.63% for the second.

Compared with O=C1C2CCCCN2C(=O)N1CCCCN1CCN(c2cccc(Br)c2)CC1 (stereo not drawn), COc1ccc(N2CCN(CCNC(=O)CCN3C(=O)COc4ccccc43)CC2)cc1 is higher in “hERG current change (%, negative = inhibition) at 10uM” value: -61.4% for the first, -47% for the second.

First: Cn1c(SCc2ccc([N+](=O)[O-])cc2)nnc1-c1cccnc1
Second: COc1ccc(S(=O)(=O)N(C)C)cc1NC(=O)CSc1nnc(-c2cccnc2)o1
The “hERG current change (%, negative = inhibition) at 10uM” value of the first is lower: -18% for the first, 26.2% for the second.

First: CC(=O)c1ncnn1CC(=O)c1ccc(Cl)cc1Cl
Second: O=C(COc1ccc(Cl)cc1Cl)OCC(=O)N1CCCc2ccccc21
The “hERG current change (%, negative = inhibition) at 10uM” value of the first is higher: 10.9% for the first, -0.227% for the second.

Going from O=C(CSc1nc2cc(Cl)ccc2s1)NC(=O)NCc1ccco1 to Cc1c(Cl)cccc1Nc1nc(N)nc(CSc2nc3ccccc3s2)n1, the “hERG current change (%, negative = inhibition) at 10uM” value rises from -1.55% to 0.584%.

Going from CCN(c1ccccc1)S(=O)(=O)c1nnc(NC(=O)c2ccco2)s1 to CCN(CC)S(=O)(=O)c1ccc(Cl)c(C(=O)NC2CCN(Cc3ccccc3)CC2)c1.Cl, the “hERG current change (%, negative = inhibition) at 10uM” value falls from 4.3% to -28.8%.

First: COc1ccc(S(=O)(=O)NCC(c2cccnc2)N2CCN(c3ccccc3)CC2)cc1C (stereo not drawn)
Second: COc1ccccc1N1CCN(Cc2ccc(O)c3ncccc23)CC1
The “hERG current change (%, negative = inhibition) at 10uM” value of the first is lower: -79.2% for the first, -27.1% for the second.

Going from COc1ccc(CNC(=O)CN(Cc2ccc(Cl)cc2)S(=O)(=O)c2ccccc2)cc1 to CC(Oc1ccc(C(=O)c2ccccc2)cc1)C(=O)Nc1ccc(S(N)(=O)=O)cc1 (stereo not drawn), the “hERG current change (%, negative = inhibition) at 10uM” value falls from -12.5% to -23.1%.

Compared with Cc1ccc2c(c1)[C@@H]1CN(C)CC[C@@H]1N2C(=O)Nc1cccc(C(F)(F)F)c1, CS(=O)(=O)c1sc(C(=O)NC(=O)Nc2cccc(C(F)(F)F)c2)c2c1C=CCC2 is higher in “hERG current change (%, negative = inhibition) at 10uM” value: -38.5% for the first, -11.6% for the second.

Going from Cc1cccc(C(=O)NC(=S)Nc2ccccc2C(F)(F)F)c1 to O=C(Nc1cccc(F)c1)c1ccccc1-c1ccccc1, the “hERG current change (%, negative = inhibition) at 10uM” value falls from -10.9% to -26.5%.

Compared with COCCn1c(SCC(=O)Nc2ccc(NC(C)=O)cc2)nc2c([nH]c3ccccc32)c1=O, COc1ccccc1CNC(=O)c1cc2c(C)nn(Cc3ccc(F)cc3)c2s1 is lower in “hERG current change (%, negative = inhibition) at 10uM” value: 18.9% for the first, 0.106% for the second.

Going from Cc1c(C(=O)NCc2ccccn2)sc2nc(-c3ccc(F)cc3)cn12 to Cc1ccc(OCCCOc2cccc3cccnc23)cc1C, the “hERG current change (%, negative = inhibition) at 10uM” value rises from -10.2% to 4.71%.

Going from COc1ccc(-c2cc(=O)oc3cc(OC(=O)C4CCCCC4)c(Cl)cc23)cc1 to C=C(Cl)COc1ccc2c(CCCC)cc(=O)oc2c1, the “hERG current change (%, negative = inhibition) at 10uM” value falls from 11.2% to -24.9%.

Going from CCc1c(C)n([O-])c2c([n+]1=O)CCCCC2 to CSc1nc2sc3c(c2c2nnnn12)CCCC3, the “hERG current change (%, negative = inhibition) at 10uM” value rises from 1.54% to 7.91%.

Going from CCOc1ccccc1NC(=O)CCC(=O)Nc1nnc(C2CCCCC2)s1 to Cc1nn(Cc2ccccc2)c(C)c1NC(=O)CCC(=O)O, the “hERG current change (%, negative = inhibition) at 10uM” value falls from 18.8% to 2.81%.

Compared with CC(C)(C)C(=O)Nc1ccccc1-c1nc2ccccc2[nH]c1=O, Cc1ccc(/C=C/c2nc3ccccc3c(=O)n2CCc2ccccc2)cc1 is lower in “hERG current change (%, negative = inhibition) at 10uM” value: 13.7% for the first, 13.1% for the second.

First: COC(=O)C1=C(CSc2nnnn2C)NC(=O)NC1c1cc(C)ccc1C (stereo not drawn)
Second: CCOC(=O)NC(=O)CSc1cc(C)c2cc(C)cc(C)c2n1
The “hERG current change (%, negative = inhibition) at 10uM” value of the first is lower: -2.11% for the first, 8.47% for the second.

Going from CCC(C)NC(=O)CSc1nnc(-c2ccc(OC)c(OC)c2)c(-c2ccc(OC)c(OC)c2)n1 (stereo not drawn) to COc1ccc(/C=C/C(=O)OCC(=O)Nc2ccc(Cl)c(S(=O)(=O)N(C)C)c2)cc1OC, the “hERG current change (%, negative = inhibition) at 10uM” value falls from 12.4% to 2.74%.

First: COc1cc(/C=C(\C#N)c2nc3ccccc3n2C)cc(OC)c1O
Second: COc1cc(/C=C2\S/C(=N/S(=O)(=O)c3ccccc3)NC2=O)c([N+](=O)[O-])cc1OC
The “hERG current change (%, negative = inhibition) at 10uM” value of the first is lower: -28.3% for the first, 4.25% for the second.

Going from Cc1nc(SCc2ccccc2)c2oc3ccccc3c2n1 to O=C(NCc1ccccc1)C1Cc2ccccc2CN1C(=O)c1ccco1 (stereo not drawn), the “hERG current change (%, negative = inhibition) at 10uM” value falls from 12.2% to -12.2%.

Compared with CCN(CC)Cc1csc2ccc(Br)cc12.Cl, COc1ccc2c(CC(=O)Nc3nc(C)cs3)coc2c1 is higher in “hERG current change (%, negative = inhibition) at 10uM” value: -41% for the first, -8.96% for the second.

Going from O=C(Cn1cnc2ccccc21)OCC(=O)N1CCc2ccccc2C1 to CCOc1ccc(OCCOCCN2CCc3ccccc3C2)cc1, the “hERG current change (%, negative = inhibition) at 10uM” value falls from -4.25% to -74.8%.

Compared with Cc1cc(C(=O)NNC(=O)c2cccc(N(C)C)c2)c(C)o1, CC(C)(C)NC(=O)COC(=O)c1cc(Cl)ccc1[N+](=O)[O-] is higher in “hERG current change (%, negative = inhibition) at 10uM” value: -0.4% for the first, 13% for the second.

First: CC1(NC(=S)NCCO)CCS(=O)(=O)C1 (stereo not drawn)
Second: CCOC(=O)N/N=C1\CCS(=O)(=O)c2ccc(Cl)cc21
The “hERG current change (%, negative = inhibition) at 10uM” value of the first is higher: 9.03% for the first, -7.4% for the second.

Compared with CCNc1nc(NCC)nc(NC(N)=S)n1, CC(C)OC(=O)c1c(N)n(CCCN2CCOCC2)c2nc3ccccc3nc12 is lower in “hERG current change (%, negative = inhibition) at 10uM” value: 21.4% for the first, -20.6% for the second.

Compared with CC(=O)N1N=C(c2cccc(Cl)c2)OC1c1cccc([N+](=O)[O-])c1 (stereo not drawn), Cc1ccccc1NC(=O)c1cc(S(=O)(=O)N2CCOCC2)ccc1F is higher in “hERG current change (%, negative = inhibition) at 10uM” value: -8.93% for the first, 3.48% for the second.

Compared with CCNC(=S)N1CCN(C(c2ccccc2)c2ccccc2)CC1, CC(C)c1ccc(/C=C/C(=O)N2CCCCCC2)cc1 is lower in “hERG current change (%, negative = inhibition) at 10uM” value: 2.6% for the first, -18% for the second.

Compared with CCN1C(=O)CC(N2CCC(C(=O)OC)CC2)C1=O (stereo not drawn), CO/N=C/c1ccc(N2CCCC2)c([N+](=O)[O-])c1 is lower in “hERG current change (%, negative = inhibition) at 10uM” value: 9.32% for the first, -1.34% for the second.

Compared with COC(OC)c1ccnc(SCc2ccccc2Cl)n1, O=c1ccnc(NCCc2ccccc2)[nH]1 is higher in “hERG current change (%, negative = inhibition) at 10uM” value: 6.74% for the first, 12.7% for the second.

Going from COCCOC(=O)C1=C(C)NC2=C(C(=O)CCC2)C1c1ccc2c(c1)OCO2 (stereo not drawn) to O=C(Cc1ccc(Cl)cc1)Nc1ccc(-c2cc3ccccc3oc2=O)c(Cl)c1, the “hERG current change (%, negative = inhibition) at 10uM” value rises from -49.6% to -6.02%.
